Test results as given in the RNAGym collection of RNA variant scans (doi:10.7554/elife.90254).
The source gives no read counts; variants with many changes may rest on few reads.

B1: OR4K15 (parent)
chain: GUUAACGGUCAUAGGCCAUGGAAACUAGGAGCACCAUUUCGCUGCCAGUGAAGAAAUGAACAAAGAAAAUCUGGGCCAGGCAGGCAUCAAAAGAAAUAGUCUUGCGCUCAACCAGAAAGUCUGUAAUCAUUUUAAGGGUA
B2: LINE1-mini (parent)
chain: GGCAGAGCUCAACACAGCGUGGCAAAGUGGCUGUGGCUAGACUGCC

Variants of: B1
Assay: self-cleavage, relative activity (ratio to wild type); higher = more cleavage; in vitro, sequencing; the parent is a self-cleaving ribozyme
Work on A90G U108C U130C A140G yielded a self-cleavage of 0. Variant A90G U122A A126C has a self-cleavage of 0.15. With A94U U97A A114G the self-cleavage was 0.79. A90G A126G U130C showed a self-cleavage of 0.74. U108C A129U U130C showed a self-cleavage of 0. For A116G U122C U127A, the self-cleavage was 1.18. In the case of A92U A98U A114C, the self-cleavage is reported as 0.07. For U102A A117G U120C U130A, the self-cleavage was 0.17. Variant A91G U102A U108C A114G has a self-cleavage of 0. Work on A89G U124C U133G yielded a self-cleavage of 1.52. Work on A94U U122C A129G yielded a self-cleavage of 0.74. Variant A96G U103C U131C has a self-cleavage of 0.67. A95G U108A A125U gave a self-cleavage of 0. U102C U108C A140G showed a self-cleavage of 0. A96G U124A A126G gave a self-cleavage of 1.17. For U124C A125U U132C, the self-cleavage was 1.58. U102C A118C U120C showed a self-cleavage of 0.6. C105U A126G U132C showed a self-cleavage of 0.13. A94G A110U A118G showed a self-cleavage of 1.17. Variant U103C U108C U122A has a self-cleavage of 0.03. A116G A118G U120C showed a self-cleavage of 0.23. For U87C U100C U130C, the self-cleavage was 2.41. U108A U127C A129G U131C showed a self-cleavage of 0. A92G U108C A117G gave a self-cleavage of 0.01. Variant U87C A126G U139A has a self-cleavage of 1.9. A110G A129G A140G showed a self-cleavage of 0.08. A95G U120C C128U U130A showed a self-cleavage of 1.27. Variant U100A A110G A125G has a self-cleavage of 0.09. A90U A91U A118G U131C showed a self-cleavage of 0.99. For U87A A111U A117G, the self-cleavage was 0.02. Variant A94G A95G G138A A140G has a self-cleavage of 1.94. With A96G G104A U122A the self-cleavage was 0.01. In the case of U108C A118U U131C, the self-cleavage is reported as 0. With A91G C105A A118G the self-cleavage was 0. Variant A89G C107U U132C U133C has a self-cleavage of 0.01. Work on A90G U108A U122C yielded a self-cleavage of 0.01. In the case of A94U A111G U122G U139C, the self-cleavage is reported as 0. With U102A U122A U127C the self-cleavage was 0.76. For A94G U100C U103A, the self-cleavage was 1.76. Work on A90U A95G A125G yielded a self-cleavage of 1.34. U100C U108C A111G A135G gave a self-cleavage of 0.01. With A90G A94G U130C the self-cleavage was 0.92. In the case of U87A U120A U132C, the self-cleavage is reported as 0.64. U108C U122C U132C showed a self-cleavage of 0.01. Work on U102C A129G G138U yielded a self-cleavage of 1.82. G115A U127C A140G showed a self-cleavage of 0.09. A92C U97C A98G U131C showed a self-cleavage of 0.28. In the case of U87C A96G U103C, the self-cleavage is reported as 2.17. A90G G123A A129U gave a self-cleavage of 0.3. With A118G U127C A134U the self-cleavage was 0.21. With U102C A110G A134G the self-cleavage was 0.14. U102C U127C A140G showed a self-cleavage of 1.42. With A111G A117G U122C U130G the self-cleavage was 0. A89U A125U U130A gave a self-cleavage of 1.39. A92U A94U A98G U120C showed a self-cleavage of 0.42. With A91G U131C A135G the self-cleavage was 0.51. A98G A111G C121U gave a self-cleavage of 0.02. A96G U97C A116G U132C gave a self-cleavage of 0.05. With A98U A110C A111G the self-cleavage was 0. For A91U A92U U130C A140U, the self-cleavage was 0.78. For U103C G115U A117C A134G, the self-cleavage was 0.01. U97A A98G U133C showed a self-cleavage of 1.88. A95G U102C A126G U132A gave a self-cleavage of 1.57. Variant A96U A110G A118U has a self-cleavage of 0.03. A94G A95G U139C gave a self-cleavage of 0.92. Work on A91G G99A A126G yielded a self-cleavage of 0.09. With A92G G104A U130C the self-cleavage was 0.01. For U122C U139C A140U, the self-cleavage was 0.58. In the case of U102C A114U A126G, the self-cleavage is reported as 0.04. In the case of A116G A126G C128U, the self-cleavage is reported as 0.07. In the case of U102C A114G A117G, the self-cleavage is reported as 1.73. C105U A118G U131C showed a self-cleavage of 0.01. With A91G A129U U139A the self-cleavage was 0.64. A92G A117G A125G U130C gave a self-cleavage of 0.18. In the case of A90G A118G U131C, the self-cleavage is reported as 0.35. In the case of A98U A114G A125G, the self-cleavage is reported as 0.22. A111G A117G U120C gave a self-cleavage of 0.02. With A114U U122A U131C the self-cleavage was 0.03. Variant A94G A114G A135G has a self-cleavage of 0.82. With A89G U103A A140U the self-cleavage was 0.32. A89U A111G U122G showed a self-cleavage of 0.01. U87A A94G U127C gave a self-cleavage of 1.8. A90G A92G A96G gave a self-cleavage of 0.1. With A110G U130C U139C the self-cleavage was 0.08. With A90G U103C U127C the self-cleavage was 0.47. Work on U87C G138A A140G yielded a self-cleavage of 0.91. In the case of A89G A110U U122C A129G, the self-cleavage is reported as 0.4. In the case of U87C U100C U133C, the self-cleavage is reported as 2.47. U122A U130C U132C gave a self-cleavage of 0.84. Work on A94G U102C A117G yielded a self-cleavage of 2.93. C101A A118G A129G gave a self-cleavage of 0.02. Variant A90G A95G A110G has a self-cleavage of 0.32. A90U U120C U122C gave a self-cleavage of 1.42. Variant A91G U102A A116G A140U has a self-cleavage of 0.45. Work on A89G A94G U131C yielded a self-cleavage of 1.13. In the case of A96G A126G A129U U132C, the self-cleavage is reported as 0.25. Work on A96G A111G U127A yielded a self-cleavage of 0.02. With A94U U102C U127C A140G the self-cleavage was 1.82. C112U A114U A117G showed a self-cleavage of 0.02. A95G C128A U132C showed a self-cleavage of 1.87. In the case of U100A A116G A117U A140G, the self-cleavage is reported as 0.42. A90G A94G A98G U122A gave a self-cleavage of 0.55. Variant A95G G106A A111U has a self-cleavage of 0.01. For A94G U97C U108A A114G, the self-cleavage was 0. In the case of A92G A94G U108A, the self-cleavage is reported as 0.01. Variant A94G U127C U131C has a self-cleavage of 1.04. A90G U103C U130C gave a self-cleavage of 0.17. U97C A111U A135G gave a self-cleavage of 0.

Variants of: B2
Assay: as above
G1A A11U G33C C37U gave a self-cleavage of 0. With G1A A14C G27C the self-cleavage was 0.15. For G1A A11U U32C G44A, the self-cleavage was 0.04. In the case of G1A A4U C31U G40C, the self-cleavage is reported as 0.06. In the case of G1A A6C G27C G30A U38A, the self-cleavage is reported as 0.06. For G1A A12U G36U A39U, the self-cleavage was 0.22. With G1A A4G U34C the self-cleavage was 0.09. G1A A4U G19C G22C A24G G30C C42U gave a self-cleavage of 0.11. With G1A A6C A14G the self-cleavage was 0.13. G1A A14G G40A U43G gave a self-cleavage of 0.11. G1A A4U A16G C37A C45G showed a self-cleavage of 0.07. G1A A4U C15G U43G showed a self-cleavage of 0. For G1A A4G C13A G19U G44U, the self-cleavage was 0.04. In the case of G1A A6G U20C U32C G40C, the self-cleavage is reported as 0.08. Variant G1A A11G U34C has a self-cleavage of 0.11. Work on G1A A6G C18A U20A U34C C37A U38G yielded a self-cleavage of 0.01. G1A A4G A11G C42A gave a self-cleavage of 0.02. G1A A6U C8U C23U showed a self-cleavage of 0.41. Work on G1A A12U C45A yielded a self-cleavage of 0.35. Work on G1A A6U C8A A25G A26C C31A yielded a self-cleavage of 0.8. In the case of G1A A6C U9A G21U, the self-cleavage is reported as 0.08. For G1A A14G G29U G40A, the self-cleavage was 0.09. In the case of G1A A12U A39U G44A, the self-cleavage is reported as 0.08. G1A A14G C15G G19C showed a self-cleavage of 0.02. G1A A14U C45U showed a self-cleavage of 0.06. G1A A4C C18A G21A G22U A39U C46A gave a self-cleavage of 0.03. G1A A6G G29C C31G showed a self-cleavage of 0.05. G1A A11U A14C G22U A39U C42G showed a self-cleavage of 0.02. Work on G1A A12C G33U yielded a self-cleavage of 0.05. Work on G1A A4C C18A G35C yielded a self-cleavage of 0.05. G1A A14U G21C showed a self-cleavage of 0.2. For G1A A6G C10U A11C C31A A39G, the self-cleavage was 0.01. For G1A A12G C37A C46G, the self-cleavage was 0.07. In the case of G1A A6U U32A, the self-cleavage is reported as 0.07. In the case of G1A A14C A41C, the self-cleavage is reported as 0.02. For G1A A4G U9G C15A, the self-cleavage was 0.17. G1A A14U G33A gave a self-cleavage of 0.11. Variant G1A A4U C42A has a self-cleavage of 0.12. G1A A11U C18G gave a self-cleavage of 0.05. Work on G1A A6C C13G G22C C23A yielded a self-cleavage of 0.11. Work on G1A A6U G17U A39G yielded a self-cleavage of 0.06. With G1A A14G G36U C42A the self-cleavage was 0.1. Work on G1A A12G U43A G44C yielded a self-cleavage of 0.07. For G1A A4G G33C U34A C42U, the self-cleavage was 0.04. Work on G1A A12C A14G C15A yielded a self-cleavage of 0.05. For G1A A12U C23A, the self-cleavage was 0.29. G1A A11C C42A C46A gave a self-cleavage of 0.01. For G1A A12C C23A G33U, the self-cleavage was 0.01. Work on G1A A6C G7C yielded a self-cleavage of 0.06. G1A A12U G22A U28A C31A C37U U43C gave a self-cleavage of 0.03. With G1A A4C C8G C10A C23U C46A the self-cleavage was 0.03. For G1A A6G C8G A14U U28C G30A U38C, the self-cleavage was 0.03. For G1A A14U C23U, the self-cleavage was 0.12. G1A A4G A12U G33A A41C showed a self-cleavage of 0.03. G1A A6G G19C showed a self-cleavage of 0. In the case of G1A A11C C42U G44U, the self-cleavage is reported as 0.03. With G1A A6C C10A A16G the self-cleavage was 0.05. With G1A A11G C18G the self-cleavage was 0.04. Variant G1A A14C C18G U20C U32A U34C has a self-cleavage of 0.04.
